According to the RNAGym collection of RNA variant scans (doi:10.1093/nar/gkz1192):
The source gives no read counts; variants with many changes may rest on few reads.

B1: CPEB3 Ribozyme (parent)
chain: UAACAGGGGGCCACAGCAGAAGCGUUCACGUCGCAGCCCCUGUCAGAUUCUGGUGAAUCUGCGAAUUCUGCUGUAUAUCUC

Variants of: B1
Assay: self-cleavage, relative activity (ratio to wild type); higher = more cleavage; in vitro, sequencing
Method in brief: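 Barcoded CPEB3 ribozyme mutants, produced by rounds of error-prone PCR, self-cleaved while being transcribed with T7 RNA polymerase for 5 hours at 37°C and during a subsequent 15 min DNase I step before EDTA was added. Sequencing of template-switched cDNA on Illumina gave cleaved and total reads, and DNA sequencing assigned barcodes to variants. Each variant's relative activity is its cleaved/total read fraction divided by the unmutated ribozyme's fraction, averaged across three batches. A variant needed a minimum of 5 reads.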

Row | Variant | self-cleavage
1 | UAACAGGGGGCCUCAGCAGAAGCGUUCACGUCGCAGCACCUGUCAGAUUCUGGUGAAUCAGCGAAUUCUGCUGUUUAUCUC [A13U C38A U60A A75U] | 0.13
2 | UAACAGGGGGCCUCAGCAGAAGCGUUCACGUCGCAGCUCCAGUCAGAUUCCGGUGAUUCAGCGAAUUCCGCUGUAUAUCUC [A13U C38U U41A U51C A57U U60A U69C] | 0.05
3 | UAACAGGGGGCCUCAGCAGAAGCGUUCACGUCGCAGCUCCUGUCAGAUAUUGGUGAAUCUGCGAAUUCUGCUGUAUAUCUC [A13U C38U U49A C50U] | 0.44
4 | UAACAGGGGGCCUCAGCAGAAGCGUUCACGUCGCAGCUCCUGUCAGAUUCUGGUGAAUCUGCGAAUUCUGCCGUAUAUCUC [A13U C38U U72C] | 1.21
5 | UAACAGGGGGCCUCAGCAGAAGCGUUCACGUCGCAGCUCCUGUCAGAUUCUGGUGAAUCUGCGAAUUCUGCUGUAUACCUC [A13U C38U U78C] | 1.15
6 | UAACAGGGGGCCUCAGCAGAAGCGUUCACGUCGCAGCCGCCGUCAGAUUCCGGUGAAUCUGCGAAUUCUGCUGUAUAUCUC [A13U C39G U41C U51C] | 0.31
7 | UAACAGGGGGCCUCAGCAGAAGCGUUCACGUCGCAGCCCUAGUCUGAUUCUGGUGAAUCUGCGAAUUCUGCAGUAUACCUC [A13U C40U U41A A45U U72A U78C] | 0.05
8 | UAACAGGGGGCCUCAGCAGAAGCGUUCACGUCGCAGCCCCUGUCAGAUUCUGGUGAAUAUGCGAGUUCUGCCGUAUACCUC [A13U C59A A65G U72C U78C] | 0.13
9 | UAACAGGGGGCCUCAGCAGAAGCGUUCACGUCGCAGCCCCUGUCAGAUUCUGGUGAAUCUGUGAAUUCUGCUGAAUACCUC [A13U C62U U74A U78C] | 0.57
10 | UAACAGGGGGCCUCAACAGAAGCGUUCACGUCGCAGCCCCUGUCAGAUUCCGGUGAAUCUGCGAAUUCUGCUGUAUAUCUC [A13U G16A U51C] | 0.62
11 | UAACAGGGGGCCUCACCAGAUGCGUUCACGUCGCAGCCCCUGUCAGAUUCUGGUGAGUCUGUGAUUUCUGCUGUAUAUCUC [A13U G16C A21U A57G C62U A65U] | 0.07
12 | UAACAGGGGGCCUCAGCAAAAGCGUUCACGUCGCAGCCCCUGUCAGAUUCUUAUGAAUCUGCGUAUUCUGCUGUAUAUCUC [A13U G19A G52U G53A A64U] | 0.08
13 | UAACAGGGGGCCUCAGCAUAGGCGUUCGCGUCGCAGCCCCUGUCAGAUUCUGGUGAAUCUGCGAAUUCUGCUGUAUAUCUC [A13U G19U A21G A28G] | 0.08
14 | UAACAGGGGGCCUCAGCAUAAGCGUCCACGUCGCAGCCCCCGUCAGAUUCUGGUGAAUCUGCGAAUUCUGCUGUAUAUCUC [A13U G19U U26C U41C] | 0.24
15 | UAACAGGGGGCCUCAGCAGAAACGUUCACGUCGCAGCCCCUGUCAGAUACCGGUGAAUCUGCGAAUUCUGCUGUAUAUCUC [A13U G22A U49A U51C] | 0.09
16 | UAACAGGGGGCCUCAGCAGAAGCAUUCUCGUCGCAGCCCCAGUCAGAUUCUGGUGAAUCUGCGAAUUCUGCUGUAUAUCUC [A13U G24A A28U U41A] | 0.1
17 | UAACAGGGGGCCUCAGCAGAAGCAUCCACGUCGCAGCCCCUGUCAGAUUCUGGCGAAUCUGUGAAUUCUGCUGUAUAUCUC [A13U G24A U26C U54C C62U] | 0.06

Row | Variant | self-cleavage
18 | UAACAGGGGGCCUCAGCAGAAGCCUUCACGUCGCAGCCCCUGUCAGAUUCUGGUGGAUCAGCGAAUUCUGCUGUAUAUCUC [A13U G24C A56G U60A] | 0.12
19 | UAACAGGGGGCCUCAGCAGAAGCCUUCACGUCGGAGCCCCUGUCAGAUUCUGGUGAAUCUGCGAAUUCUGCUGUAUACCUC [A13U G24C C34G U78C] | 0.13
20 | UAACAGGGGGCCUCAGCAGAAGCGUUCACAUCGCAGCCCCUGUCCGAUUCUGGUGAAUCCGCGAAUUAUGCUGUAUAUCUC [A13U G30A A45C U60C C68A] | 0.11
21 | UAACAGGGGGCCUCAGCAGAAGCGUUCACUUCGCAGCCCCAGUCAGAUUCUGGUGAAUCUGCGAAUUCUGCAGUAUAUCUC [A13U G30U U41A U72A] | 0.04
22 | UAACAGGGGGCCUCAGCAGAAGCGUUCACGUCACAGCCCCUGUCAGAUUCUGGUGAAUCUGCGAAUUCCGCUGUAUAUCCC [A13U G33A U69C U80C] | 0.16
23 | UAACAGGGGGCCUCAGCAGAAGCGUUCACGUCUCAGCCCCUGUCAGAUUCUGGUGAAUCUGCGAACUCUGCUGUAUAUCUC [A13U G33U U66C] | 0.16
24 | UAACAGGGGGCCUCAGCAGAAGCGUUCACGUCGCAGCCCCUAUCAGACUCUGGUGAAUCUACGAAUUCUGCUGUAUAUCUC [A13U G42A U48C G61A] | 0.11
25 | UAACAGGGGGCCUCAGCAGAAGCGUUCACGUCGCAGCCCCUAUCAGAUUCCGGUGAAUCUGCGAAUUCUGCUGUAUAUCUC [A13U G42A U51C] | 0.49
26 | UAACAGGGGGCCUCAGCAGAAGCGUUCACGUCGCAGCCCCUGUCAUAUCCUGGUGAAUCUGCGAGUUCUGCUGUAUAUCUC [A13U G46U U49C A65G] | 0.09
27 | UAACAGGGGGCCUCAGCAGAAGCGUUCACGUCGCAGCCCCUGUCAGAUUCUGGUGAAUCUGCAGAUUCCGCUGUAUAUCUC [A13U G63A A64G U69C] | 0.17
28 | UAACAGGGGGCCUCAGCAGAAGCGUUCACGUCGCAGCCCCUGUCAGAUUCUGGUGAAUCUGCUAAUUCUGCGGUAUAUCUC [A13U G63U U72G] | 0.91
29 | UAACAGGGGGCCUCAGCAGAAGCGUUCACGUCGCAGCCCCUGUCAGAUUCUGGUGAAUCUGCUAAUUCUGCUGAAUAUCUC [A13U G63U U74A] | 1.26
30 | UAACAGGGGGCCUCAGCAGAAGCGAUCACGUCGCAGCCCCUGUCAGAUUCUGGAGAAUCUGCGAACUCUGCUGUAUAUCUC [A13U U25A U54A U66C] | 0.16
31 | UAACAGGGGGCCUCAGCAGAAGCGAUCACGUCGCAGCCCCUGUCAGAUUCUGGUGAAUCUGCGAAUUCUGCUGUAUAUCAC [A13U U25A U80A] | 0.21
32 | UAACAGGGGGCCUCAGCAGAAGCGCUCACCUCGCAGCCCCUGUCAGAUUCAGGUGGAUCUGCGAAUUCUGCUGUAUAUCUC [A13U U25C G30C U51A A56G] | 0.2
33 | UAACAGGGGGCCUCAGCAGAAGCGCACACGUCGCAGCCCCUGACAGAUUCUGGUGAAUCCGCGAAUUCUGCUGUAUAUCUC [A13U U25C U26A U43A U60C] | 0.09
34 | UAACAGGGGGCCUCAGCAGAAGCGCCCACGUCGCAGCCCCUGUCAGAUUCUGGUGAAUCUGCGAAUUCUGCUGUAUAUCUC [A13U U25C U26C] | 0.03
